Results taken from PubChem BioAssay (NCI).
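Values below derive from 48-hour exposures of cells grown in 96-well plates, with endpoints linearly interpolated between the two concentrations bracketing the appropriate inhibition level. GI50 = concentration required for 50% inhibition of growth. At the TGI there is no net growth.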

System: NCI-H322M lung
Assay: NCI tumour cell line growth inhibition, 48 h

Compound `Cc1ccc([C@]2(C)CC[C@H](C)/C2=C\Br)c(O)c1` has a GI50 of 7.32 µM and a TGI of 20.3 µM.

For `C[C@@H](Nc1nc(Nc2ccc(F)c(Cl)c2)nc2ccccc12)C1CC1`, the GI50 was 5.24 µM and the TGI was 18.3 µM.

`Cc1c(C(=O)O)n2cnnc2c2ccccc12` showed a TGI greater than 100 µM.

With `O=C(N/N=C/c1cc(Br)cc(Br)c1[O-])c1ccccc1O.O=C(N/N=C/c1cc(Br)cc(Br)c1[O-])c1ccccc1O.[Ni+2]` the TGI was 2.22 µM.

With `COc1ccc2ccc3oc([N+](=O)[O-])cc3c2c1` the GI50 was 0.868 µM and the TGI was 5.52 µM.

Compound `O=C1CSc2cc([N+](=O)[O-])ccc2N1` has a TGI greater than 100 µM.

Compound `C=C(C(=O)O[C@H]1C(=O)C2=C(C)CCC3C(=C)C(=O)O[C@@H]3C2[C@]1(C)O)C1CC[C@]2(C)CCCC(=C)[C@H]2C1` (stereo not given in full) has a TGI of 29.7 µM.

Compound `C[N+](C)(CCNC(=O)c1cccc2cc3ccccc3nc12)Cc1ccc([N+](=O)[O-])s1` has a TGI greater than 25 µM.

Work on `COC(=O)C(C)NC(=O)c1ccccc1I(OS(=O)(=O)C(F)(F)F)c1ccccc1` (stereo not given) yielded a GI50 of 21.4 µM and a TGI of 49.7 µM.

Compound `Cc1cccc(Cc2cnc(NC(=O)CCc3ccc(C)o3)s2)c1` has a GI50 of 1.18 µM and a TGI greater than 100 µM.

With `O=C(CCCCC(=O)N/N=C\c1ccccc1O)N/N=C\c1ccccc1O` the GI50 was 2.3 µM and the TGI was 32.8 µM.

Work on `C/C=N\N1C(=O)c2ccccc2C1=O` yielded a TGI greater than 100 µM.

In the case of `O=C(/C=C\c1ccccc1)N1CCc2ccccc2C1`, the TGI is reported as greater than 100 µM.

Work on `COc1cc(-c2csc(NC(=O)Nc3cc(Cl)cc(Cl)c3)n2)cc(OC)c1OC` yielded a GI50 of 1.73 µM and a TGI of 3.77 µM.

With `CC1(C)CC(N(C(=O)/C=C/c2ccc([N+](=O)[O-])o2)C2CCCCC2)CC(C)(C)N1` the TGI was 27.4 µM.

In the case of `Oc1ccc(Cc2cc(Cl)cc(Cl)c2O)cc1Cl`, the TGI is reported as 36.7 µM.

`CS(=O)(=O)N(c1cc(-c2ccc3ncnc(Nc4cccc(Cl)c4)c3c2)cnc1Cl)S(C)(=O)=O` showed a GI50 of 0.882 µM and a TGI of 5.36 µM.

In the case of `CC(O)c1cc(C(=O)N[C@@H](C)Cn2ccc(-c3ccc(C#N)c(Cl)c3)n2)n[nH]1` (stereo not given in full), the GI50 is reported as greater than 100 µM and the TGI is reported as greater than 100 µM.

For `O=C(NC(=S)Nc1cc(Cl)ccc1O)c1cccc(Br)c1`, the GI50 was 6.3 µM and the TGI was greater than 100 µM.

Work on `Cc1cc(S(=O)(=O)/N=C(/NN)NNc2cccc(C(F)(F)F)n2)c(S)cc1Cl` yielded a TGI of 88.3 µM.
